From PMC6602471 come the findings set out here.

Some of the results follow. At the low end of the ranking the order means little.

For the experiment, the target named is T1, ELK1 (UniProt P19419).
T1 sequence: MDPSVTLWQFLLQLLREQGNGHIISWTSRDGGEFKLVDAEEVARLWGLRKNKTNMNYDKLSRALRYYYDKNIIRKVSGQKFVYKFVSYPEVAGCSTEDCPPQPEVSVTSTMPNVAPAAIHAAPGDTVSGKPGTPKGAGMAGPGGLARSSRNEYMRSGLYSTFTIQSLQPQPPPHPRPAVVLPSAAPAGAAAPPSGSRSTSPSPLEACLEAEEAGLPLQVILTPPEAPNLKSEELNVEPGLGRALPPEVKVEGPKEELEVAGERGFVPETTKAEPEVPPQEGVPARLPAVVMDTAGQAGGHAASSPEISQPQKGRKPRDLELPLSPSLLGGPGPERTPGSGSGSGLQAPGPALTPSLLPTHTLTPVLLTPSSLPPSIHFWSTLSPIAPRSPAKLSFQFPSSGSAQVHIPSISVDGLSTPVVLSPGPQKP
Nature of the experiment: custom PBM. To be noted: custom protein-binding microarray; buffer, salt, pH and temperature not stated; high values mean tight binding; double strand, one strand shown.
With “GCTGCTGCGGTGCATACCCCACCGGATGTGAGCCCGGTCTTGATTCGCTTGACGCTGCTG”, the binding signal (log fluorescence intensity) was 10.2. The figure for “CACAATTTTTACAGTAATGTAGCAGGCGTAACTCCTGTCTTGATTCGCTTGACGCTGCTG” is 9.01; for “CAGCATAGGACTTCTTCCCTCAAGCAATTGATAACCGTCTTGATTCGCTTGACGCTGCTG” it is 8.84. For “GGAAAAAGGCCCAGGGTAACACCGGAAGTGTGCTTAGTCTTGATTCGCTTGACGCTGCTG”, the binding signal (log fluorescence intensity) worked out at 10.8. As to “CGGAACTGTCGTAAACGTCGGATATCCGGTTCTTCTGTCTTGATTCGCTTGACGCTGCTG”, the binding signal (log fluorescence intensity) stood at 12.5. As to “GGACAAAGGCCCAGGGTAACACCGGAAGTGGGCTTAGTCTTGATTCGCTTGACGCTGCTG”, the binding signal (log fluorescence intensity) is 11.1. As for “GGAAAAAGGCCCAGGGTAACACCGGAAGGGGGCTTAGTCTTGATTCGCTTGACGCTGCTG”, the binding signal (log fluorescence intensity) turned out to be 10. On to “TGTCGGGTAAGGGAATGTAGACCACGTGAATGAAAAGTCTTGATTCGCTTGACGCTGCTG”, for which the binding signal (log fluorescence intensity) was 9.03.

With “GCTGCTGCGGTGCATTCCCCACCGGATGTGACCCCGGTCTTGATTCGCTTGACGCTGCTG”, the binding signal (log fluorescence intensity) was determined as 10. The figure for “GATTAATTTCTGCCATTATTCGCACGTGCCATAACAGTCTTGATTCGCTTGACGCTGCTG” is 8.92. Turning to “CAGCATAGCACTTCTTCCCTGAAGCAATTGATAACCGTCTTGATTCGCTTGACGCTGCTG”, the binding signal (log fluorescence intensity) was found to be 8.92. As to “GGAAAAAGGCCCAGGGTAACACAGGAAGTGGGCTTAGTCTTGATTCGCTTGACGCTGCTG”, the binding signal (log fluorescence intensity) is 9.55. As to “TACTGACTTATATATCCGAATGCACATGAATAGACCGTCTTGATTCGCTTGACGCTGCTG”, the binding signal (log fluorescence intensity) came to 9.23.

For the sequence “GATGCTGCGGTGCATACCCCACCGGATGTGACCCCGGTCTTGATTCGCTTGACGCTGCTG”, the binding signal (log fluorescence intensity) amounted to 10.2. Consider “CTGGGACTTGACCCAACTCTGCCACGTGGGTCGTCTGTCTTGATTCGCTTGACGCTGCTG”, for which the binding signal (log fluorescence intensity) came to 9.03. As for “CAGCATAGGACTTCCTCCCTGAAGCAATTGATAACCGTCTTGATTCGCTTGACGCTGCTG”, the figure is 12.2; as for “CAGCATAGGACTTCTTCCCCGAAGCAATTGATAACCGTCTTGATTCGCTTGACGCTGCTG”, 9.11; as for “CACAATTTTTACAGTAATGTAGCACGCGTCACTCCTGTCTTGATTCGCTTGACGCTGCTG”, 8.84.

In the case of “TGTCGGGTAAGGGTATGTAGATCACGTGAATGAAAAGTCTTGATTCGCTTGACGCTGCTG”, the binding signal (log fluorescence intensity) stood at 8.76. “GTGTTTAGGATCCCATCCAACACACGTGTTAAAATGGTCTTGATTCGCTTGACGCTGCTG”: the binding signal (log fluorescence intensity) stood at 8.92. As for “TGTCGGGTAAGGCAATGTAGATCACGTGAATGAAAAGTCTTGATTCGCTTGACGCTGCTG”, the binding signal (log fluorescence intensity) turned out to be 8.8. As for “TCCGGCTACCAGGTCCACCCACTTCAGGCCTTGTAGGTCTTGATTCGCTTGACGCTGCTG”, the figure is 8.9; as for “TACTGACCTATATATGCGAATGCACATGAATAGACCGTCTTGATTCGCTTGACGCTGCTG”, 8.82. Regarding “TAAAGGGAAGACGGTTGTGGTAGTTCCGGGTAATAAGTCTTGATTCGCTTGACGCTGCTG”, the binding signal (log fluorescence intensity) came to 11.3. On to “CAGCATAGGAATTCTTCCCTGAAGCAATTGATAACCGTCTTGATTCGCTTGACGCTGCTG”, for which the binding signal (log fluorescence intensity) stood at 8.81. The figure for “CTGGGACTTGACCCAACTCTGCCACGTGGGTCGTGTGTCTTGATTCGCTTGACGCTGCTG” is 8.82; for “GGTGCTGCGGTGCATACCCCACCGGATGTGACCCCGGTCTTGATTCGCTTGACGCTGCTG” it is 10.3; for “GGAAAAAGGCCCAGGGTAACAACGGAAGTGGGCTTAGTCTTGATTCGCTTGACGCTGCTG” it is 10.

As for “TGTCGGGTAAGGGAATGTAGATCCCGTGAATGAAAAGTCTTGATTCGCTTGACGCTGCTG”, the binding signal (log fluorescence intensity) is 8.99. The figure for “TACTGACTTATATATGCGATTGCACATGAATAGACCGTCTTGATTCGCTTGACGCTGCTG” is 8.96; for “GATTAATTTCGGCCCTTATTCGCACGTGCCATAACAGTCTTGATTCGCTTGACGCTGCTG” it is 9.02. As for “TGTCGGGTAAGGGAATGTAGATCACGTGACTGAAAAGTCTTGATTCGCTTGACGCTGCTG”, the binding signal (log fluorescence intensity) was found to be 8.96. In the case of “TAAAGGGTAGACGGTTGTGGTAGTTCCGGGTATTAAGTCTTGATTCGCTTGACGCTGCTG”, the binding signal (log fluorescence intensity) worked out at 11. In the case of “TGAAGGGAAGACGGTTGTGGTAGTTCCGGGTATTAAGTCTTGATTCGCTTGACGCTGCTG”, the binding signal (log fluorescence intensity) was 11.

In the case of “TGTCGCGTAAGGGAATGTAGATCACGTGAATGAAAAGTCTTGATTCGCTTGACGCTGCTG”, the binding signal (log fluorescence intensity) amounted to 8.89. “GTGTATAGGATCCAATCCAACACACGTGTTAAAATGGTCTTGATTCGCTTGACGCTGCTG”: the binding signal (log fluorescence intensity) stood at 8.9. As for “CACAATTTTTACAGTAGTGTAGCACGCGTAACTCCTGTCTTGATTCGCTTGACGCTGCTG”, the binding signal (log fluorescence intensity) turned out to be 8.95.

As for “GCTGCTGCGGTGCATACCCCACCGGATGTGCCCCCGGTCTTGATTCGCTTGACGCTGCTG”, the binding signal (log fluorescence intensity) came out at 10.2.

Consider “GATTAATTTCCGCCCTTATTCGCACGTGCCATAACAGTCTTGATTCGCTTGACGCTGCTG”, for which the binding signal (log fluorescence intensity) was 12.5. “GATTAATTTCTGCCCTTATTCGCACGTGCCATAACTGTCTTGATTCGCTTGACGCTGCTG”: the binding signal (log fluorescence intensity) is 8.83.

For the sequence “GATTAATTTCTGCCCTTATTCGCACGTACCATAACAGTCTTGATTCGCTTGACGCTGCTG”, the binding signal (log fluorescence intensity) came out at 8.83.
